This is an account of results in PMC4336329 (PLoS ONE, 2015).

Among all 310,000 compounds or so, about 2,200 (0.71%) showed an effect of 50% or more. Effects have a minus sign here. This is one part of the list.

The target in this assay is human ether-à-go-go-related gene (hERG) potassium channel (human, UniProt Q12809). The assay can be described thus: primary screen, population patch clamp on CHO cells stably expressing hERG.
Chain of human ether-à-go-go-related gene (hERG) potassium channel (Q12809 whole entry, looked up): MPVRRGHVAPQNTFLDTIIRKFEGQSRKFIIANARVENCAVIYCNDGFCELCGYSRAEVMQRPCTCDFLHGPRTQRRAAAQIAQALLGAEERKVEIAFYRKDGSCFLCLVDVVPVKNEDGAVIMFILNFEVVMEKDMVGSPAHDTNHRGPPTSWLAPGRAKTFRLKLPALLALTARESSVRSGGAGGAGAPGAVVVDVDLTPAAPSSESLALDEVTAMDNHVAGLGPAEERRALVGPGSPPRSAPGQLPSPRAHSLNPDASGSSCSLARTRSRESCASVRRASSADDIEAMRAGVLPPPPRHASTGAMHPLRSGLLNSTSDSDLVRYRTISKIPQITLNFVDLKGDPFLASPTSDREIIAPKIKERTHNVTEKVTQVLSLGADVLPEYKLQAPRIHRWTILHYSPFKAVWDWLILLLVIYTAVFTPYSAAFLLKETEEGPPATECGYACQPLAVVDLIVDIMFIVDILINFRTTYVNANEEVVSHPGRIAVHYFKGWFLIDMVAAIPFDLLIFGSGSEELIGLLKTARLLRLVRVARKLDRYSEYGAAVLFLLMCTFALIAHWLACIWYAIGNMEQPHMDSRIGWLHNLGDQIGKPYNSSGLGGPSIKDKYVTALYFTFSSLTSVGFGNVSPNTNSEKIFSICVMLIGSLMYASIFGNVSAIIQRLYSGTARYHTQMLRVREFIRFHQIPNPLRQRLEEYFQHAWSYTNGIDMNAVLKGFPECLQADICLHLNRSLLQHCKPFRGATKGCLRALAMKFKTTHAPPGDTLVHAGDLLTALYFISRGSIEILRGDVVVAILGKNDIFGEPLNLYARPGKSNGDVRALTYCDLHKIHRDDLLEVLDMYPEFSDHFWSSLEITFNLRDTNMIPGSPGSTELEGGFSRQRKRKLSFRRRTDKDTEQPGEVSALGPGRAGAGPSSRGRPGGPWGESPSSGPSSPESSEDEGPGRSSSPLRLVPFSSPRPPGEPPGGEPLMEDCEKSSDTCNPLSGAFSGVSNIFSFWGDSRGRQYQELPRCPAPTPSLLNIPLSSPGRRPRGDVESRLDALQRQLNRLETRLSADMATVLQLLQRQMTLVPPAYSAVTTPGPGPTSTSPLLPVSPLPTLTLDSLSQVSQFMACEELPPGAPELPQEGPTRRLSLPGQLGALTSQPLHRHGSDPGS
For the molecule `COc1ccc(C)cc1N(CC(=O)N1CCCCCC1)S(C)(=O)=O`, the “hERG current change (%, negative = inhibition) at 1uM” value was 14.5%. As for `COc1ccc2[nH]cc(CCNS(=O)(=O)c3ccc(F)cc3)c2c1`, the “hERG current change (%, negative = inhibition) at 1uM” value came to 9.73%. Then `Cc1sc2nc(COC(=O)C(NC(=O)c3ccc(Cl)cc3Cl)C(C)C)[nH]c(=O)c2c1C` (centres unmarked), with 3.57%; and `CC1CCCCC1NC(=S)Nc1ccc(SC(F)F)cc1` (centres unmarked), with -0.822%. Then `COc1ccccc1Nc1nc(NCc2ccco2)nc(N)c1[N+](=O)[O-]`, with 13.1%; and `CN(C)S(=O)(=O)c1cccc(NC(=O)C2Cc3ccccc3CN2C(=O)c2ccccc2)c1` (centres unmarked), with 15.3%; and `O=C(c1cc(COc2ccc3ncccc3c2)on1)N1CCC[C@H]1CO`, with 11.4%. For the molecule `CCOC(=O)C1CCCN(C(=O)c2ccc(NC(=O)CC3SC(N4CCCC4)=NC3=O)cc2)C1` (centres unmarked), the “hERG current change (%, negative = inhibition) at 1uM” value is on record as 1.52%. In the case of `O=C(CCN1C(=O)/C(=C/c2ccc(F)cc2)SC1=S)Nc1cccnc1`, the “hERG current change (%, negative = inhibition) at 1uM” value worked out at 11.2%. Regarding `COc1ccc(CCNC(=O)C2CCCN(S(=O)(=O)c3ccc(F)cc3)C2)cc1` (centres unmarked), the “hERG current change (%, negative = inhibition) at 1uM” value is listed as 12.8%. Then `COc1ccc(N2C(=O)C3CC(C)=C(C)CC3C2=O)c(OC)c1` (centres unmarked), with 14.6%; and `O=C(CCC1CCCN(C(=O)CC2=CCCCC2)C1)N1CCN(c2ccccn2)CC1` (centres unmarked), with 17.7%; and `O=C(NN=C1C2CC3CC(C2)CC1C3)c1cc(Cl)ccc1O`, with -4.53%. Take `COc1ccc(-n2c(Cc3cccn3C)nnc2SCC(=O)Nc2ccc(C(C)=O)cc2)cc1`: the “hERG current change (%, negative = inhibition) at 1uM” value was 7.92%. Then `Cc1cc2c(cc1C)C(c1ccccc1F)CC(=O)N2` (centres unmarked), with 15.6%. For `O=C(/C=C/c1cccs1)Nc1ccc([N+](=O)[O-])cc1`, the “hERG current change (%, negative = inhibition) at 1uM” value came to 10.4%. Consider `COc1ccc(Br)cc1C(=O)NC(=S)Nc1ccc(Cl)c(C(=O)O)c1`, for which the “hERG current change (%, negative = inhibition) at 1uM” value turned out to be 18%. Then `Cc1ccc(C)c2nc(N3CCCC3)c(C#N)cc12`, with 8.96%. Then `CC1(C)CC(=O)C2=C(C1)N(Cc1ccc(F)cc1)C(=O)C2(NC(=O)c1cccnc1)C(F)(F)F` (centres unmarked), with 5.07%; and `Cc1cccc(N(Cc2cc(=O)[nH]c3ccccc23)C(=O)C(C)C)c1`, with 10.3%. In the case of `Cc1ccc(S(=O)(=O)CC(=O)Nc2ccccn2)cc1` it was 13.8%; in that of `CCOC(=O)N1CCN(C(=O)CCSCCc2ccncc2)CC1`, 7.19%; in that of `COCCNC(=O)c1ccccc1NC(=O)c1ccccc1SC`, 7.19%.

In the case of `Cn1cc(S(=O)(=O)CC(=O)N2CCCc3ccccc32)c2ccccc21`, the “hERG current change (%, negative = inhibition) at 1uM” value turned out to be 2.59%. Regarding `CC(C)NOC(=O)c1ccc(Cl)cc1`, the “hERG current change (%, negative = inhibition) at 1uM” value is listed as -12.8%. As to `Nc1ccc(C(=O)O)cc1S(=O)(=O)O`, the “hERG current change (%, negative = inhibition) at 1uM” value is on record as 9.19%. In the case of `Oc1c(Br)cc(Br)cc1C=Nc1ccc2c(c1)OCCO2` it was 12.2%.

Turning to `Cc1nn(C)cc1CNC(=O)c1cnn2c(C(F)F)cc(C3CC3)nc12`, the “hERG current change (%, negative = inhibition) at 1uM” value was 2.77%. In the case of `O=C1/C(=C/c2ccccc2)NC(=S)N1C(c1ccccc1)c1ccccc1` it was 7.93%. Then `O=C(Nc1ccccc1)O/N=C/c1ccccc1Cl`, with 8.41%; and `Cn1cnnc1Sc1cc(N2CCNCC2)ccc1[N+](=O)[O-]`, with 17.5%. With `COCc1cc(N2CCCC2)nc(-c2ccccc2)n1`, the “hERG current change (%, negative = inhibition) at 1uM” value is 8.37%. Then `CCOc1ccccc1C1NC(=O)NC(C)=C1C(=O)OCc1ccco1` (centres unmarked), with 7.29%; and `COc1ccc2nc(NC(=O)C34CC5CC(CC(NC(C)=O)(C5)C3)C4)sc2c1`, with 14.2%; and `C=CCn1c(SCC(=O)OCC)nc2cc(C(=O)NCc3ccco3)ccc2c1=O`, with -9.92%.

Take `COc1cccc(C(=O)Nc2ccc(C3CC3(Cl)Cl)cc2)c1` (centres unmarked): the “hERG current change (%, negative = inhibition) at 1uM” value worked out at 6.67%. As for `COC(=O)c1ccc(-c2noc(CN(C)Cc3ccncc3C)n2)cc1`, the “hERG current change (%, negative = inhibition) at 1uM” value was -2.71%. Then `COc1ccc(C(=O)NCC(=O)OCc2cccc(Br)c2)cc1`, with 13.5%. In the case of `CC(=O)N1c2c(cc(Br)cc2S(=O)(=O)N2CCN(c3ccccc3F)CC2)CC1C` (centres unmarked) it was 11.5%; in that of `CCOc1ccc(NC(=O)C(C)Oc2ccccc2C(=O)Nc2ccc(C)c(Cl)c2)cc1` (centres unmarked), 1.97%; in that of `Cc1ccc(S(=O)(=O)N2CCN(C(=O)CSc3nnc(C)c(=O)[nH]3)CC2)cc1`, 14.5%. As to `COc1ccc(-c2csc(NC(=O)COC(=O)c3ccco3)n2)cc1`, the “hERG current change (%, negative = inhibition) at 1uM” value was 10.5%. In the case of `CC(OC(=O)c1cc2sccc2n1C)C(=O)NCCc1ccccc1` (centres unmarked) it was 5.48%. Then `CCOc1ccc2nc(COC(=O)c3ccco3)c(C(C)=O)[n+]([O-])c2c1`, with 6.45%.
